# Some of the results follow.
# B1: Gal 3 (Homo sapiens), P17931 (protein)
# chain: MADNFSLHDALSGSGNPNPQGWPGAWGNQPAGAGGYPGASYPGAYPGQAPPGAYPGQAPPGAYHGAPGAYPGAPAPGVYPGPPSGPGAYPSSGQPSAPGAYPATGPYGAPAGPLIVPYNLPLPGGVVPRMLITILGTVKPNANILDFQRGNDVAFHFNPRFNENNRRVIVCNTKLDNNWAREERQSVFPFESGKPFKIQVLVEPDHFKVAVNDAHLLQYNHRVKKLNEISKLGISGDIDLTSASYTMI
# What was measured:
# Experiment in all cases: glycan array binding signal (z-score within array); higher = stronger binding
# Settings in all cases: glycan notation: IUPAC condensed, linker removed; mutation: G182A
# Fuc(a1-2)Gal = target: Fuc(a1-2)Gal
# How it was run: (§1)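 From the Consortium for Functional Glycomics database, 3228 arrays were curated, keeping only those whose protein sequence was available. Binding is given as a within-array Z-score averaged across arrays sharing a protein sequence and across linkers. Negative Z-scores can be read as non-binding.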
# Fuc(a1-2)Gal(b1-3)GalNAc = target: Fuc(a1-2)Gal(b1-3)GalNAc
# How it was run: as §1
# [1] = target: Fuc(a1-2)Gal(b1-3)GalNAc(a1-3)[Fuc(a1-2)]Gal(b1-4)Glc
# How it was run: as §1
# [2] = target: Fuc(a1-2)Gal(b1-3)GalNAc(a1-3)[Fuc(a1-2)]Gal(b1-4)GlcNAc
# How it was run: as §1
# [3] = target: Fuc(a1-2)Gal(b1-3)GalNAc(b1-3)Gal
# How it was run: as §1
# [4] = target: Fuc(a1-2)Gal(b1-3)GalNAc(b1-3)Gal(a1-4)Gal(b1-4)Glc
# How it was run: as §1
# [5] = target: Fuc(a1-2)Gal(b1-3)GalNAc(b1-4)[Neu5Ac(a2-3)]Gal(b1-4)Glc
# How it was run: as §1
# Fuc(a1-2)Gal(b1-3)GlcNAc = target: Fuc(a1-2)Gal(b1-3)GlcNAc
# How it was run: as §1
# [6] = target: Fuc(a1-2)Gal(b1-3)GlcNAc(b1-2)Man(a1-3)[Fuc(a1-2)Gal(b1-3)GlcNAc(b1-2)Man(a1-6)]Man(b1-4)GlcNAc(b1-4)GlcNAc
# How it was run: as §1
# [7] = target: Fuc(a1-2)Gal(b1-3)GlcNAc(b1-3)Gal(b1-4)Glc
# How it was run: as §1
# [8] = target: Fuc(a1-2)Gal(b1-3)GlcNAc(b1-3)[Fuc(a1-3)[Gal(b1-4)]GlcNAc(b1-6)]Gal(b1-4)Glc
# How it was run: as §1
# [9] = target: Fuc(a1-2)Gal(b1-3)[Fuc(a1-4)]GlcNAc
# How it was run: as §1
# [10] = target: Fuc(a1-2)Gal(b1-3)[Fuc(a1-4)]GlcNAc(b1-2)Man(a1-3)[Fuc(a1-2)Gal(b1-3)[Fuc(a1-4)]GlcNAc(b1-2)Man(a1-6)]Man(b1-4)GlcNAc(b1-4)GlcNAc
# How it was run: as §1
# [11] = target: Fuc(a1-2)Gal(b1-3)[Fuc(a1-4)]GlcNAc(b1-3)[Fuc(a1-3)[Gal(b1-4)]GlcNAc(b1-6)]Gal(b1-4)Glc
# How it was run: as §1
# [12] = target: Fuc(a1-2)Gal(b1-3)[Fuc(a1-4)]GlcNAc(b1-3)[Gal(b1-4)GlcNAc(b1-6)]Gal(b1-4)Glc
# How it was run: as §1
# Fuc(a1-2)Gal(b1-4)Glc = target: Fuc(a1-2)Gal(b1-4)Glc
# How it was run: as §1
# Fuc(a1-2)Gal(b1-4)Glc6S = target: Fuc(a1-2)Gal(b1-4)Glc6S
# How it was run: as §1
# Fuc(a1-2)Gal(b1-4)GlcNAc = target: Fuc(a1-2)Gal(b1-4)GlcNAc
# How it was run: as §1
# [13] = target: Fuc(a1-2)Gal(b1-4)GlcNAc(b1-2)Man(a1-3)[Fuc(a1-2)Gal(b1-4)GlcNAc(b1-2)Man(a1-6)]Man(b1-4)GlcNAc(b1-4)GlcNAc
# How it was run: as §1
# [14] = target: Fuc(a1-2)Gal(b1-4)GlcNAc(b1-3)Gal(b1-4)GlcNAc
# How it was run: as §1
# [15] = target: Fuc(a1-2)Gal(b1-4)GlcNAc(b1-3)Gal(b1-4)GlcNAc(b1-3)Gal(b1-4)GlcNAc
# How it was run: as §1
# [16] = target: Fuc(a1-2)Gal(b1-4)GlcNAc(b1-3)GalNAc
# How it was run: as §1
# [17] = target: Fuc(a1-2)Gal(b1-4)GlcNAc6S
# How it was run: as §1
# [18] = target: Fuc(a1-2)Gal(b1-4)[Fuc(a1-3)]GlcNAc
# How it was run: as §1
# [19] = target: Fuc(a1-2)Gal(b1-4)[Fuc(a1-3)]GlcNAc(b1-2)Man(a1-3)[Fuc(a1-2)Gal(b1-4)[Fuc(a1-3)]GlcNAc(b1-2)Man(a1-6)]Man(b1-4)GlcNAc(b1-4)GlcNAc
# How it was run: as §1
# [20] = target: Fuc(a1-2)Gal(b1-4)[Fuc(a1-3)]GlcNAc(b1-3)Gal(b1-4)[Fuc(a1-3)]GlcNAc
# How it was run: as §1
# [21] = target: Fuc(a1-2)Gal(b1-4)[Fuc(a1-3)]GlcNAc(b1-3)Gal(b1-4)[Fuc(a1-3)]GlcNAc(b1-3)Gal(b1-4)[Fuc(a1-3)]GlcNAc
# How it was run: as §1
# Fuc(a1-2)Gal6S(b1-4)Glc = target: Fuc(a1-2)Gal6S(b1-4)Glc
# How it was run: as §1
# [22] = target: Fuc(a1-2)Gal6S(b1-4)Glc6S
# How it was run: as §1
# [23] = target: Fuc(a1-2)Gal6S(b1-4)GlcNAc
# How it was run: as §1
binder,measurement,setting,value
B1,glycan array binding signal (z-score),Fuc(a1-2)Gal,-0.196
same,glycan array binding signal (z-score),Fuc(a1-2)Gal(b1-3)GalNAc,-0.185
same,glycan array binding signal (z-score),[1],-0.176
same,glycan array binding signal (z-score),[2],-0.19
same,glycan array binding signal (z-score),[3],-0.176
same,glycan array binding signal (z-score),[4],-0.17
same,glycan array binding signal (z-score),[5],-0.193
same,glycan array binding signal (z-score),Fuc(a1-2)Gal(b1-3)GlcNAc,-0.14
same,glycan array binding signal (z-score),[6],-0.192
same,glycan array binding signal (z-score),[7],-0.128
same,glycan array binding signal (z-score),[8],-0.173
same,glycan array binding signal (z-score),[9],-0.191
same,glycan array binding signal (z-score),[10],-0.144
same,glycan array binding signal (z-score),[11],-0.19
same,glycan array binding signal (z-score),[12],-0.192
same,glycan array binding signal (z-score),Fuc(a1-2)Gal(b1-4)Glc,-0.178
same,glycan array binding signal (z-score),Fuc(a1-2)Gal(b1-4)Glc6S,-0.164
same,glycan array binding signal (z-score),Fuc(a1-2)Gal(b1-4)GlcNAc,-0.188
same,glycan array binding signal (z-score),[13],-0.16
same,glycan array binding signal (z-score),[14],0.712
same,glycan array binding signal (z-score),[15],5.12
same,glycan array binding signal (z-score),[16],-0.187
same,glycan array binding signal (z-score),[17],-0.165
same,glycan array binding signal (z-score),[18],-0.182
same,glycan array binding signal (z-score),[19],-0.186
same,glycan array binding signal (z-score),[20],-0.141
same,glycan array binding signal (z-score),[21],-0.184
same,glycan array binding signal (z-score),Fuc(a1-2)Gal6S(b1-4)Glc,-0.169
same,glycan array binding signal (z-score),[22],-0.19
same,glycan array binding signal (z-score),[23],-0.19

# From the supplement of paper PMC8728848
